# Laboratory results as given in the BET-seq Pho4 binding data (Le et al. 2018).
# This is one part of the list. The energies were worked out here from pooled read counts, against the library average; single values are noisy.
# Biological target: T1, Pho4 (S. cerevisiae) (UniProt P07270)
# T1 sequence: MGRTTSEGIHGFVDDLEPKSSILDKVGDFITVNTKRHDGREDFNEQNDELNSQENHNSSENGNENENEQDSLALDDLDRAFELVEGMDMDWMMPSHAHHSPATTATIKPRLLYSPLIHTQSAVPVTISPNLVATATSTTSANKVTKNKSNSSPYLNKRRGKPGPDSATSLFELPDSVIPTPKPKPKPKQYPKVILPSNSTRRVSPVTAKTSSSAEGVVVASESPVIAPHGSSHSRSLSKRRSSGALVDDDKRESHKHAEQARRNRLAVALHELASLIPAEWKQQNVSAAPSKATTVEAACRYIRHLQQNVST
# Assay: relative binding free energy (BET-seq); higher = weaker binding
# Details: reference: library average
row,Sequence,relative binding free energy [kcal/mol]
1,AGAAACACGTGGGGCG,0
2,GTTTACACGTGTCTAA,0.23
3,AAAATCACGTGTGAGG,0.16
4,TTTATCACGTGTACGT,0.2
5,AGGTCCACGTGTGAGG,-0.01
6,TAGAACACGTGTAGGG,0.11
7,TGTTTCACGTGTTCTA,0.23
8,GGCATCACGTGGTGAG,0.05
9,GTTTTCACGTGTGGAC,0.42
10,ACTTACACGTGGGGGG,0.1
11,GGGTGCACGTGCTTGG,-0.1
12,CTTTACACGTGAAGGT,0.2
13,CGGGGCACGTGTGGGT,-0.02
14,GGTTACACGTGATAGT,0.27
15,ATACTCACGTGGGAGT,0.05
16,TCGGGCACGTGATTGT,-0.04
17,GGGTTCACGTGAGGAG,0.48
18,TTTAACACGTGGTAGT,-0.05
19,GGATGCACGTGGGGCT,-0.03
20,GCGGTCACGTGCGAGG,0.09
21,CGGTTCACGTGTGGTA,0.29
22,GGATGCACGTGTATTA,-0.05
23,TGTTTCACGTGTTGAT,0.25

row,Sequence,relative binding free energy [kcal/mol]
1,TGTTGCACGTGGTTAA,-0.07
2,AAATGCACGTGGGCTG,-0.25
3,TTTCACACGTGGTCTT,-0.01
4,TTTTGCACGTGTACGT,-0.06
5,TGATGCACGTGGGACT,-0.05
6,CGGTGCACGTGGAGTC,-0.05
7,TCTGTCACGTGCGTTT,0.13
8,GTTTTCACGTGCGGTT,0.28
9,TGTTGCACGTGCCTTT,-0.14
10,GTAATCACGTGCGGGG,0.11
11,TTCTACACGTGTCGGT,0.17
12,CTGTGCACGTGAATGT,0.11
13,CAGTTCACGTGTAGGT,0.22
14,TTTACCACGTGGGTAG,-0.19
15,GGTGGCACGTGAAAAT,0.3
16,GATACCACGTGGTGTT,-0.06
17,TTGGGCACGTGATCTA,-0.13
18,GAGTACACGTGTGGGT,0.17
19,CTGTGCACGTGTGTTC,-0.03
20,GGCGACACGTGGGTTG,-0.02
21,TATTGCACGTGACATT,0.02
22,TAAAGCACGTGGTAAT,-0.13
23,GGTTTCACGTGGATGT,0.24

row,Sequence,relative binding free energy [kcal/mol]
1,AGATTCACGTGTGATA,0.27
2,GCTTGCACGTGATGAT,0.29
3,ATGTTCACGTGAGACT,0.29
4,TCGTTCACGTGGGTAA,0.2
5,AGTGACACGTGATCGG,0.16
6,TTGGTCACGTGTCACG,0.25
7,AGAAGCACGTGAGTGT,0.17
8,TTTAACACGTGTCTGT,-0.1
9,TTCGTCACGTGTGGTG,0.1
10,GGGGGCACGTGATCTT,-0.02
11,AGGCTCACGTGTTTTG,0.23
12,TGTAGCACGTGCGTGG,-0.12
13,GGGTTCACGTGGATTA,0.27
14,CAAGACACGTGGGTAT,0.1
15,GGTGACACGTGTTGGC,0.16
16,GGTAGCACGTGAGGTT,0.28
17,GCTTGCACGTGGGGTC,-0.04
18,ACGTGCACGTGGAAGT,-0.09
19,TGTTCCACGTGATATT,0.22
20,AGGAGCACGTGGAGCT,-0.05
21,TTGATCACGTGTGGCT,0.05
22,GTGGGCACGTGCACGG,-0.06
23,CAGTGCACGTGATGGT,0.21

row,Sequence,relative binding free energy [kcal/mol]
1,TACGTCACGTGTTGGA,0.09
2,ATAAGCACGTGTAGGC,-0.04
3,TGATTCACGTGTTCGT,0.25
4,TGTATCACGTGCAGGG,0.15
5,CTGGCCACGTGTGGGT,-0.11
6,ATTTACACGTGTTCGT,0.16
7,AAATTCACGTGTGGGA,0.09
8,TTAGTCACGTGCTTAT,0.02
9,TGTTACACGTGTGCAG,0.12
10,TGGTTCACGTGCGGAA,0.3
11,GAATTCACGTGGGGCT,0.38
12,TATGACACGTGATTGG,0.17
13,GTTGCCACGTGTCGGG,0.01
14,TTATTCACGTGAGCTG,0.39
15,GTGGTCACGTGTAAAA,0.21
16,GCTTTCACGTGTATAT,0.35
17,ATCAGCACGTGTGAGG,-0.01
18,TTCGTCACGTGGCGAT,0.11
19,AGTAGCACGTGAGAGA,0.24
20,TTCAGCACGTGGATGG,-0.17
21,TTATCCACGTGCTGGT,0.1
22,TTAATCACGTGGGGGC,0.11
23,ATAAACACGTGTGGGA,0.04

row,Sequence,relative binding free energy [kcal/mol]
1,CTAGTCACGTGGGGTC,-0.08
2,GGATACACGTGTATGG,0.17
3,ATGTGCACGTGGTTCC,-0.09
4,GTAATCACGTGTGGAT,0.22
5,TTTAACACGTGATCGG,0.07
6,GTTATCACGTGGTCGA,0.08
7,TTCGTCACGTGCTGGT,-0.14
8,CTTGTCACGTGGTTTG,0.11
9,TGGGTCACGTGGTTAC,0.13
10,AGGTTCACGTGGATCT,0.16
11,TGTCTCACGTGATCGT,0.26
12,TTTTACACGTGAGCAT,0.31
13,AGCATCACGTGTATGG,0.25
14,AGTGCCACGTGTAGGT,0
15,GTTATCACGTGAGTCT,0.23
16,AGTGGCACGTGTCATT,-0.13
17,ATAGGCACGTGACTGT,-0.08
18,TCTTGCACGTGAGTCT,0.24
19,GTATCCACGTGGAGTT,0.22
20,GGGGGCACGTGCATTG,-0.08
21,GTGATCACGTGAGCTT,0.18
22,TGTGCCACGTGCGCGG,-0.31
23,TTTCTCACGTGGGAAG,0.2
